As a reminder, the % Inhibition is the change of the read-out against control, counted positive when it falls.

Among all 150,000 compounds or so, about 540 (0.36%) showed an effect of 50% or more. The list shows a part of the results.

For this experiment, the system named is Plasmodium falciparum. Kind of experiment: Primary screen in NF54 nanoGlo assay, in single point, at 2uM, 72h; a lower Z score goes with more inhibition. Type of experiment: functional, Erythrocyte. Conditions: timepoint 72 hour.
As for `Nc1cc(CN2CCCC2CC(O)c2ccc(F)cc2)ccn1` (centres undefined), the “% Inhibition” value was -13% and the Z score is reported as 1.76.
In the same order, the values of `C#C[C@](C)(CC)NCc1cn(C(C)C)nc1C` are -13% and 1.71.
In the same order, the values of `Cc1cn(CCNc2nc(C3CCCC3)nc3c2CNC3)nn1` are -2% and 0.38.
In the same order, the values of `Cc1ocnc1CNC(=O)NC[C@H](Cc1ccccc1)C(C)C` are -11% and 0.9.
Take `Cc1ccc(S(=O)(=O)N2CCC3(CC2)N[C@@H](Cc2ccccc2)C(=O)N3Cc2ccc(F)cc2)cc1`: the “% Inhibition” value is listed as -9% and the Z score turned out to be 1.38.
The corresponding values for `O=S(=O)(c1ccc(-c2noc(-c3ccccc3Br)n2)cc1)N1CCCCC1` are -1% and 0.18.
Take `Cc1cccc(CNC(=O)[C@@H]2CCN(c3ccc4ccccc4c3)C2=O)c1`: the “% Inhibition” value is -2% and the Z score is recorded as 0.22.
Regarding `O=C(O)[C@@H]1CN(C(=O)C2(c3ccccc3)CCCC2)CCO1`, the “% Inhibition” value worked out at 7% and the Z score is reported as -0.89.
With `CCOc1ccccc1NC(=O)N1CCN(Cc2ccc(C)cc2)C(=O)[C@@H]1C`, the “% Inhibition” value was -9% and the Z score is 0.97.
The corresponding values for `CC(CN1CCC(N2CCOCC2)C1)c1cccc(Cl)c1` (centres undefined) are 5% and -0.64.
The corresponding values for `Cc1cnc(CNC(=O)CC(C)(C)CC(=O)c2ccccc2)s1` are 2% and -0.3.
Take `CCc1ccccc1N(C)C(=O)Cn1ccc2c(=O)n(C)c(=O)n(C)c21`: the “% Inhibition” value is reported as -29% and the Z score stood at 2.87.
As to `Cc1cc(C)n(C[C@H](C)Nc2ccnc(C(=O)NC(C)C)c2)n1`, the “% Inhibition” value was -4% and the Z score is reported as 0.53.
Regarding `COc1cc(F)c(CN2CCN3CCN(C)C[C@H]3C2)c(F)c1`, the “% Inhibition” value came to 0% and the Z score was -0.03.
Turning to `Cc1ncsc1CCc1nc(Cc2cccnc2)nn1CCO`, the “% Inhibition” value is reported as -7% and the Z score is given as 0.87.
The corresponding values for `Cc1cc(C(=O)N2CCC[C@H](c3nccn3C)C2)c2c(C)noc2n1` are -20% and 2.27.
In the same order, the values of `O=C(NCc1nccn1CCCc1ccccc1)N1CCC[C@H](O)C1` are -4% and 0.51.
On to `C#CCN(CC(=O)O)Cc1ccccc1C1CC1`, for which the “% Inhibition” value was -4% and the Z score came out at 0.75.
On to `CCCn1cnc2cc(-c3noc(-c4ccc(C)cc4)n3)ccc21`, for which the “% Inhibition” value is given as -18% and the Z score was found to be 2.32.
The corresponding values for `CCN(CCOc1cccc(C)c1)C(=O)Cc1n[nH]c(NC(C)=O)n1` are -13% and 2.07.
Take `Cc1nn(C)cc1C(C)NC(=O)N1CCCC(CN2CCOCC2)C1` (centres undefined): the “% Inhibition” value was -5% and the Z score was determined as 0.46.
Turning to `Cc1cnn(-c2ccccc2)c1C(=O)NC1CCN(Cc2ccccc2)CC1`, the “% Inhibition” value is listed as -10% and the Z score is given as 1.45.
Take `O=C(c1cnn2ccccc12)N1CCC(c2c[nH]c3ccccc23)CC1`: the “% Inhibition” value came out at 34% and the Z score is reported as -3.89.
In the same order, the values of `CCc1ccccc1-n1c(=O)[nH]c2c(c1=O)C(CC)(CC)Cc1ccccc1-2` are 2% and -0.27.
In the same order, the values of `CO[C@H]1C[C@H](C(=O)Nc2cc(Br)ccc2O)N(C(=O)OC(C)(C)C)C1` are 8% and -1.09.
As for `N#CCn1cc(S(=O)(=O)N2CCOCC2)ccc1=O`, the “% Inhibition” value is reported as -7% and the Z score stood at 1.21.
The corresponding values for `O=C(Cc1ccc(NS(=O)(=O)c2ccc3c(c2)CCCC3)cc1)N1CCOCC1` are -4% and 0.63.
In the case of `Cc1noc(C)c1C(=O)NC[C@](C)(O)c1cc2ccccc2o1`, the “% Inhibition” value was 1% and the Z score is -0.19.
The corresponding values for `C[C@H](Nc1ccc2nc(C3CC3)oc2c1)C1CCS(=O)(=O)CC1` are 2% and -0.31.
With `COCn1ccc(C(=O)Nc2ccnc(C)c2Cl)n1`, the “% Inhibition” value was -12% and the Z score is on record as 1.42.
In the same order, the values of `O=C(COC(=O)c1c(F)cccc1Cl)Nc1ccc2c(c1)CCC2` are -6% and 1.09.
In the same order, the values of `FC(F)(F)C1CCC(c2nc(C3CCCCO3)no2)C1` (centres undefined) are -7% and 0.75.
As to `CCOCCCNC(=O)c1cn2ccnc(-c3ccc(F)cc3)c2n1`, the “% Inhibition” value was -2% and the Z score is reported as 0.34.
With `COc1ncc(Cl)c(N(C)CC2(O)CCCC2)n1`, the “% Inhibition” value is -19% and the Z score was found to be 2.45.
In the same order, the values of `Cc1nn(C)c(C)c1CCC(=O)N1CC[C@H](N2CCOCC2)[C@H](CCCO)C1` are -8% and 1.29.
The corresponding values for `CN(CCc1ccc2c(c1)CCO2)C1CN(c2ccc3nncn3n2)C1` are 3% and -0.52.
Turning to `COC[C@H]1CCN(C(=O)c2cncc(Cl)c2)C1`, the “% Inhibition” value is given as -12% and the Z score came out at 1.57.
Take `CCc1nc(NS(=O)(=O)c2ccc3ccccc3c2)no1`: the “% Inhibition” value was -11% and the Z score came to 1.13.
For `COc1ccc(S(=O)(=O)C2CCN(C(=O)Cn3ncccc3=O)CC2)cc1`, the “% Inhibition” value was -14% and the Z score was 1.8.
Turning to `CN(C(=O)NCc1ncnn1-c1ccccc1)C1CCC(C)(C)CC1`, the “% Inhibition” value is given as -8% and the Z score came to 1.74.
Turning to `COc1ccc(-c2cnc(C)n2C)cn1`, the “% Inhibition” value turned out to be 8% and the Z score is on record as -1.36.
For the compound `O=C(CC[C@@H]1CCCN2CCCC[C@H]12)NCCn1cc(Cl)cn1`, the “% Inhibition” value is given as -27% and the Z score came out at 2.9.
The corresponding values for `CO[C@H]1COC[C@@H]1NCc1ccccc1-c1ccco1` are -8% and 1.12.
Turning to `O=C(Nc1ccc(Cl)cn1)N1CC[C@H](O)C1`, the “% Inhibition” value is given as -8% and the Z score is listed as 1.12.
In the same order, the values of `Cc1ccnc(NC(=O)C2CCC(F)(F)CC2)n1` are -8% and 1.54.
In the same order, the values of `C=CCCCc1nc(-c2ncoc2C)no1` are -8% and 1.49.
In the same order, the values of `CC(=O)N1CCCN(C(=O)c2cn(C)c3ccccc23)CC1` are -13% and 1.73.
Take `Cc1nc(C)n(C[C@H]2CCCCN2c2cnc3ccccc3n2)n1`: the “% Inhibition” value worked out at 4% and the Z score was -0.82.
The corresponding values for `CN(C)Cc1cc(CN2CCCC[C@H]2C(=O)NCC(F)F)no1` are 2% and -0.23.
In the same order, the values of `O=C(N1CCOCC1)N1c2ccccc2C[C@H](N2CCOCC2)c2ccccc21` are -16% and 3.06.
The corresponding values for `c1cnn(Cc2ccc(-c3nc(C4CCOCC4)n[nH]3)o2)c1` are -12% and 2.43.
As to `Cc1cnc(C(=O)N2CCc3onc(-c4ccc5c(c4)OCO5)c3C2)cn1`, the “% Inhibition” value is on record as -7% and the Z score is listed as 1.08.
In the same order, the values of `Cc1c(F)cccc1NC(=O)N1CCC(N2CC(F)(F)C[C@H]2COCC2CC2)CC1` are -9% and 1.61.
For `O=C(Nc1nnc(-c2cccs2)[nH]1)c1[nH]nc(C2CC2)c1Cl`, the “% Inhibition” value is -1% and the Z score is given as 0.11.
On to `CCCc1nc(N2CCN(C(=O)Nc3cccc(C(F)(F)F)c3)CC2)c2c(C)nn(-c3ccccc3)c2n1`, for which the “% Inhibition” value came out at 3% and the Z score is -0.55.
In the same order, the values of `CCc1nnc(CC2CCN(C(=O)c3ccco3)CC2)[nH]1` are -4% and 0.57.
The corresponding values for `COC(=O)c1ncn(Cc2nc(C(C)(C)C)no2)n1` are -9% and 0.83.
The corresponding values for `Cc1noc(-c2ccccc2OC(=O)c2ccccc2)n1` are -10% and 1.68.
As to `CN1CCc2c(NC(=O)N3CCOC[C@H]3C3CC3)cccc21`, the “% Inhibition” value worked out at 7% and the Z score is recorded as -0.88.
In the same order, the values of `Cn1c(=O)[nH]c2ncc(-c3cccc(C(N)=O)c3)cc21` are -17% and 1.5.
The corresponding values for `CC(C)(C)c1cc2c(=O)[nH][nH]c(=N)c2c(=O)[nH]1` are -6% and 0.82.
On to `O=C1NCCCCCCN(C(=O)Nc2ccccc2)[C@H]2C[C@H](C(=O)N3CCc4ccccc4C3)C[C@@H]12`, for which the “% Inhibition” value is reported as -1% and the Z score is 0.2.
For the compound `CN(C)C[C@H]1CN(C(=O)Nc2cccc(NC(=O)c3ccccc3)c2)CCO1`, the “% Inhibition” value is -42% and the Z score amounted to 4.89.
Take `Cc1nc(CNc2nccn3nnnc23)[nH]c1C`: the “% Inhibition” value is reported as -3% and the Z score was determined as 0.32.
Consider `O=C(c1ccccc1OC1CCC1)N1CCN2CCC1C2` (centres undefined), for which the “% Inhibition” value is recorded as -13% and the Z score came to 2.37.
Regarding `O=S(=O)(Cc1ccccc1)N1CC(OCc2ccc(F)cc2)C1`, the “% Inhibition” value is -7% and the Z score is 0.62.
In the same order, the values of `O=C(O)[C@H]1c2ccoc2CCN1Cc1ccccc1F` are -3% and 0.44.
Take `O=C(NCCc1ccc2c(c1)CCO2)N1CC[C@H](N2CC=CC2)C1`: the “% Inhibition” value is reported as -2% and the Z score was 0.26.
In the same order, the values of `COCCN(C)CCCNCc1cccc(Br)c1` are -11% and 0.95.
In the same order, the values of `CC(C)c1cc(=O)[nH]c(-n2nc(C3CC3)cc2NC(=O)Cc2ccc(Cl)cc2)n1` are 74% and -12.5.
The corresponding values for `CNS(=O)(=O)[C@H]1CCN(C(=O)CCC(C)(C)c2ccccc2)C1` are -9% and 1.17.
In the case of `c1ccc2sc(CN3CC[C@@H]4NCCC[C@@H]4C3)cc2c1`, the “% Inhibition” value is -4% and the Z score turned out to be 0.7.
In the same order, the values of `CC(C)Cc1nc(C#N)c(NC[C@@H](c2ccsc2)N(C)C)o1` are -8% and 1.
With `Cc1cccnc1NCCn1ccnc1-c1ccncc1`, the “% Inhibition” value is recorded as 10% and the Z score is reported as -1.39.
In the same order, the values of `O=S(=O)(Oc1ccc(-n2ccnc2)cc1)c1cncc(Cl)c1` are -8% and 1.08.
With `CC(C)(C)n1ncn(Cc2nnnn2-c2ccccc2)c1=O`, the “% Inhibition” value is recorded as -1% and the Z score stood at 0.11.
`O=C(NCc1ccccc1)[C@@H]1COC2(CCN(C(=O)c3ccc(Cl)cc3)CC2)N1C(=O)c1cccc(F)c1`: the “% Inhibition” value came out at 1% and the Z score was -0.13.
The corresponding values for `CNC(=O)[C@@H]1CN(Cc2ccc(-c3c(F)cccc3F)o2)CCO1` are -9% and 1.32.
Consider `Nc1c(Oc2ccc(Cl)cc2)ccc2ncccc12`, for which the “% Inhibition” value turned out to be 12% and the Z score is reported as -1.06.
With `CCOc1cc(N2CC(C)(C)[C@H]2c2ccncc2)ncn1`, the “% Inhibition” value is recorded as -9% and the Z score is 1.12.
In the same order, the values of `COCC(=O)NC1CN(C(=O)[C@H]2C3CCC(CC3)[C@@H]2C(F)(F)F)C1` are -8% and 1.27.
For `Cc1cc(CNS(=O)(=O)c2ccc(Br)cc2C)on1`, the “% Inhibition” value is listed as -4% and the Z score amounted to 0.59.
The corresponding values for `COC(=O)c1ncccc1OCc1cccc(C#N)c1` are -20% and 1.65.
As to `COC1(C)CN(c2nc3ccccc3s2)C1`, the “% Inhibition” value was -4% and the Z score worked out at 0.4.
On to `O=C1CN(Cc2noc(-c3ccsc3)n2)C2CCCCC2N1` (centres undefined), for which the “% Inhibition” value is reported as -8% and the Z score came out at 0.97.
Take `O=C1C[C@H](Cc2ccc(F)cc2)C(=O)N1CC1(O)CCCC1`: the “% Inhibition” value is reported as -7% and the Z score amounted to 0.69.
In the same order, the values of `Cn1cccc1-c1cc2n(n1)CCC(=O)N2CCCC(=O)NCc1cccc(Cl)c1` are -3% and 0.56.

Source of the values: ChEMBL document CHEMBL4888484, “Replenishing the malaria drug discovery pipeline: Screening and hit evaluation of the MMV Hit Generation Library 1 (HGL1) against asexual blood stage Plasmodium falciparum ,using a nano luciferase reporter read-out” (2022).
